Measurements as given in a collection of fitness landscapes (doi:10.1016/j.celrep.2020.107928).
Over roughly 81,000 sequences, “one-hybrid fitness for binding parS DNA” has its median near -0.17; the highest 2% begin near 0.51. Some of the results follow.

B1: Caulobacter ParB omega fusion; a variant is named by its letters at X, in order, B8GW30 (parent)
chain: MESVVVGEPGMSEGRRGLGRGLSALLGEVDAAPAQAPGEQLGGSREAPIEILQRNPDQPRRTFREEDLEDLSNSIREKGVLQPILVRPSPDTAGEYQIVAGERAWRAAQRAGLKTVPIMVRELDDLAVLEIGIIENVQRADLNVLEEALSYKVLMEKFERTQENIAQTIGKSXSHVANXMRLLXLPDEVQSYLVSGELTAXHARAIAAAADPVALAKQIIEGGLSVRETEALARKAPNLSAGKSKGGRPPRVKDTDTQALESDLSSVLGLDVSIDHRGSTGTLTITYATLEQLDDLCNRLTRGI

Variants of: B1
Assay: one-hybrid fitness for binding parS DNA (scaled: cognate 1, non-cognate 0); higher = stronger binding
Settings: with parS DNA site
Outline: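 Pre- and post-selection plasmids were Illumina-sequenced, three replicate libraries were pooled, and any variant with under 10 reads was removed. The libraries were Caulobacter ParB with four specificity codons randomised, selected in E. coli USO through a HIS3 reporter whose site is 19 bp from the promoter. Cells grew 48 hours at 37°C on M9 without histidine, with 0.1 mM IPTG and 5 mM 3-AT. Fitness is the log change in variant-to-wild-type read ratio, rescaled against cognate and non-cognate.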

Variant	one-hybrid fitness for binding parS DNA
RFND	≤ 0.2
TRLM	≤ 0.2
QMHR	≤ 0.2
SISL	≤ 0.2
TPIM	≤ 0.2
GPVM	≤ 0.2
KTVG	≤ 0.2
SIWG	≤ 0.2
PARF	≤ 0.2
LVFF	≤ 0.2
HKSC	≤ 0.2
RGQM	≤ 0.2
TLKM	≤ 0.2
ERES	≤ 0.2
RRVS	0.708
QNDK	≤ 0.2
SSYW	≤ 0.2
YEPS	≤ 0.2
GGTR	≤ 0.2
TKNG	≤ 0.2
GLQT	≤ 0.2
ILTW	≤ 0.2
NWLT	≤ 0.2
CMYT	≤ 0.2
VVTL	≤ 0.2
DKTR	≤ 0.2

Variant	one-hybrid fitness for binding parS DNA
HLQM	≤ 0.2
NTPC	≤ 0.2
TRDS	≤ 0.2
RKVW	≤ 0.2
RTRW	0.542
SGCR	≤ 0.2
RPFG	≤ 0.2
ESLA	≤ 0.2
RDCS	≤ 0.2
WGYR	≤ 0.2
SLHF	≤ 0.2
LWTL	≤ 0.2
WTLA	≤ 0.2
CTCN	≤ 0.2
YAST	≤ 0.2
TLWH	≤ 0.2
STEF	≤ 0.2
TAHY	≤ 0.2
QLTR	≤ 0.2
YSSP	≤ 0.2
HCLV	≤ 0.2
PRMW	≤ 0.2
PIKW	≤ 0.2
AMAA	≤ 0.2
RCGC	0.97
TSHR	≤ 0.2

Variant	one-hybrid fitness for binding parS DNA
KLSW	≤ 0.2
RVPQ	≤ 0.2
RLII	≤ 0.2
PHRQ	≤ 0.2
GTNR	≤ 0.2
LIKR	≤ 0.2
SFDE	≤ 0.2
SKGF	≤ 0.2
SAPC	≤ 0.2
WLDT	≤ 0.2
MKSL	≤ 0.2
RLEC	0.947
QINL	≤ 0.2
QKFK	≤ 0.2
MKTG	≤ 0.2
VLTF	≤ 0.2
PKVY	≤ 0.2
LYGL	≤ 0.2
CKSC	≤ 0.2
VHVS	≤ 0.2
VLGD	≤ 0.2
MESV	≤ 0.2
RIQM	0.32
DKQV	≤ 0.2
RMDH	≤ 0.2
TFDM	≤ 0.2

Variant	one-hybrid fitness for binding parS DNA
CCIR	≤ 0.2
SSLI	≤ 0.2
MVRS	≤ 0.2
KDAS	≤ 0.2
EYNA	≤ 0.2
MVWS	≤ 0.2
MPLS	≤ 0.2
SAES	≤ 0.2
NFTH	≤ 0.2
YPHT	≤ 0.2
CSFT	≤ 0.2
LLRP	≤ 0.2
EVKP	≤ 0.2
AADW	≤ 0.2
YGPY	≤ 0.2
RDAL	≤ 0.2
RRPT	0.761
STNF	≤ 0.2
MFST	≤ 0.2
ITME	≤ 0.2
ACTI	≤ 0.2
NAWR	≤ 0.2
CGKT	≤ 0.2
YGLW	≤ 0.2
CNCT	≤ 0.2
QMAA	≤ 0.2

Variant	one-hybrid fitness for binding parS DNA
ALAK	≤ 0.2
GAQH	≤ 0.2
CESS	≤ 0.2
WSYN	≤ 0.2
KVSG	≤ 0.2
LTLA	≤ 0.2
MKMS	≤ 0.2
FVNV	≤ 0.2
ELNY	≤ 0.2
TQND	≤ 0.2
ATHK	≤ 0.2
SPCI	≤ 0.2
IWSR	≤ 0.2
GYDT	≤ 0.2
PAPP	≤ 0.2
CQLT	≤ 0.2
VPGC	≤ 0.2
NSLD	≤ 0.2
VWGI	≤ 0.2
NHHC	≤ 0.2
HNCF	≤ 0.2
AMRN	≤ 0.2
YHIS	≤ 0.2
GMFR	≤ 0.2
QYLM	≤ 0.2
CMTA	≤ 0.2

Variant	one-hybrid fitness for binding parS DNA
EHTM	≤ 0.2
GQVV	≤ 0.2
NPYS	≤ 0.2
HARI	≤ 0.2
PPDV	≤ 0.2
RPST	≤ 0.2
TYSG	≤ 0.2
VDTC	≤ 0.2
DDTC	≤ 0.2
KRNR	≤ 0.2
VITR	≤ 0.2
PKMQ	≤ 0.2
YTQF	≤ 0.2
ICAR	≤ 0.2
VMYE	≤ 0.2
QQEF	≤ 0.2
NECG	≤ 0.2
NLHL	≤ 0.2
MNMY	≤ 0.2
SHTI	≤ 0.2
VSGQ	≤ 0.2
RCDV	≤ 0.2
TEST	≤ 0.2
